# Measured values as given in PubChem BioAssay AID686979 (National Center for Advancing Translational Sciences (NCATS), 2013).
# Hit rate of the full screen: of about 420,000 compounds, about 50,000 (12%) were called active. This list was built around the results that the source calls inconclusive (neither active nor inactive); the mix of calls is not that of the screen. Calls come from the whole dose curve; as a rule, active = well fitted inhibition curve with a large enough effect; inconclusive = small, poorly fitted or top-dose-only effect; inactive = flat fitted curve, though single readings scatter. Potencies of inconclusive entries are left out as doubtful fits.
# Experiment: qHTS for Inhibitors of human tyrosyl-DNA phosphodiesterase 1 (TDP1): qHTS in cells in presence of CPT; note: nearly all actives have a fitted effect of over 55% in size
# Conditions: chicken DT40 Tdp1-/-;hTDP1 cells + 20 nM CPT, ATP luminescence, 48 h; activity change, negative = growth inhibition: at 46.2 µM (top of the series)
# Method in brief: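 Chicken DT40 Tdp1-/- cells stably complemented with human TDP1 were seeded at 400 cells/well in medium containing 20 nM camptothecin, exposed to pin-transferred compounds, and grown at 37 °C for at least 48 hr. Viability was read as ATP luminescence.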
# % is set by controls: 0 for no effect and ±100 for the full control effect; potency is the fitted concentration of half-maximal effect; tags give direction and shape of the fitted curve.
Structure (SMILES),Potency,"activity change, negative = growth inhibition"
CC(=O)c1sc(N/N=C\c2ccc(Br)cc2)nc1C,"inconclusive [inhibitor, single point]",
COc1ccc(NC(=O)c2cccc(S(=O)(=O)NCc3ccco3)c2)c(OC)c1,,inactive: -23.2%
C/C(=N\NC(=O)c1ccc(CN2CCc3ccccc3C2)cc1)c1ccccc1O,active: 11.6 µM,
CCCCCCCCN1C(=O)[C@H](CC(=O)N2CCOCC2)C[C@@]2(C(=O)OC)CCCCC=C12,active: 18.4 µM,
CC(=O)Nc1ccccc1-c1nc2ccc(C(=O)N3CCN(c4cc(C)ccc4C)CC3)cc2[nH]c1=O,"inconclusive [inhibitor, single point]",
CC(C)CN1C(=O)c2ccc(C(=O)Nc3ccccc3C(=O)O)cc2C1=O,"inconclusive [inhibitor, single point]",
Cc1cc(C(C)(C)C)cc(C)c1C(=O)O,,inactive: 8.7%
O=C(Nc1cccc(-c2cccc(Cl)c2)c1)C1CCN(Cc2ccc(CO)o2)CC1,"inconclusive [inhibitor, single point]",
COc1ccc(OC)c(/C=C/C(=O)NCCc2nc3ccccc3[nH]2)c1,active: 7.31 µM,
CCCCN(CC)C(=O)Cn1ncc2c1-c1cc(C)ccc1OC2,"inconclusive [inhibitor, single point]",
CC(NC(=O)c1cc2ccccc2oc1=O)c1ccccc1 (stereo unspecified),,inactive: -0.215%
COC(CNC(=O)c1cc(C)nn1-c1ccccc1)OC,,inactive: -15.3%
COc1ccccc1CNC(=O)CSc1cc(C)[nH]c(=O)n1,,inactive: -1.87%
CC(C)NC(=O)C(=O)c1cn(C)c2ccccc12,,inactive: 15.8%
Cc1ccn2c(Nc3ccc4c(c3)OCCO4)c(-c3ccc(N(C)C)cc3)nc2c1,"inconclusive [inhibitor, single point]",
COc1ccc(OCCCC(=O)OCC(=O)N2CCN(S(=O)(=O)c3ccc(C)cc3C)CC2)cc1,,inactive: -17.9%
COc1ccc(NC(=O)C2Cc3c(-c4cccc(C(N)=O)c4)ccnc3O2)cn1 (stereo unspecified),active: 10.3 µM,
COc1ccc(/C=N/NC(=O)c2cc3c(OC)ccc(OC)c3[nH]2)cc1O,active: 0.366 µM,
CN(C)C(=O)CCC(=O)NCC1Cc2cccc(-c3ccccc3C(F)(F)F)c2O1 (stereo unspecified),"inconclusive [inhibitor, single point]",
Cc1nc(NC(=S)NC(=O)COc2ccccc2Cl)ccc1Br,"inconclusive [inhibitor, single point]",
CC1=C(c2ccc(C(C)C)cc2)S(=O)(=O)NC1=NCc1ccc(Cl)cc1,"inconclusive [inhibitor, single point]",
CN(C)/C=C1/Nc2ccccc2C1=O,"inconclusive [inhibitor, single point]",
CCC1(c2ccccc2)NC(=O)N(CC(=O)Nc2ccccc2N2CCCC2)C1=O (stereo unspecified),"inconclusive [inhibitor, single point]",
CCCN1CCN(CCCNC(=O)Cn2cc3c(n2)CCCC3)CC1,"inconclusive [inhibitor, single point]",

Structure (SMILES),Potency,"activity change, negative = growth inhibition"
O=C(Cn1ncc2c3ccccc3n(Cc3cccc(Cl)c3)c2c1=O)NCC1CCCO1 (stereo unspecified),"inconclusive [inhibitor, full curve, poor fit]",
COc1ccc(S(=O)(=O)Nc2cc(C)c(O)cc2C(C)C)cc1,"inconclusive [inhibitor, single point]",
CCSC1(SCC)N=C(N)C2(C#N)C(c3ccccc3)NC(C)=C(C)C12C#N (stereo unspecified),,inactive: 0.192%
CCCCCCCCOc1ccccc1C(=O)Nc1ccc(C(=O)OCC[N+](C)(CC)CC)cc1,"inconclusive [inhibitor, single point]",
CN1C(=O)c2ccccc2Cc2c(NCc3ccccc3)ncnc21,"inconclusive [inhibitor, single point]",
Cc1ccc(C(=O)N/N=C\c2cc(Br)c(Br)o2)cn1,"inconclusive [inhibitor, single point]",
CC(C)CC(=O)NC(Nc1ccccc1F)C(Cl)(Cl)Cl (stereo unspecified),"inconclusive [inhibitor, partial curve]",
Cc1sc2ncn(CC(=O)N3CCN(c4ccccc4)CC3)c(=O)c2c1S(=O)(=O)N1CCC(C)CC1,"inconclusive [inhibitor, single point]",
O=C(COc1ccc(S(=O)(=O)N2CCCCC2)cc1Cl)N1CCCC1,,inconclusive: -24.8% [inhibitor]
CCOC(=O)N1CCN(Cc2nc(N)nc(Nc3ccc(Oc4ccccc4)cc3)n2)CC1,"inconclusive [inhibitor, single point]",
COc1ncnc2c1oc1nc(CC(C)C)c3c(c12)CC(C)(C)OC3,"inconclusive [inhibitor, partial curve]",
CCOC(=O)Nc1ccc2c(COC(=O)C(NS(=O)(=O)c3ccc(Cl)cc3)C(C)O)cc(=O)oc2c1 (stereo unspecified),"inconclusive [inhibitor, single point]",
Cc1ccc(-c2ccc(C(=O)NCc3ccc(Cl)cc3)o2)c2ccccc12,"inconclusive [inhibitor, single point]",
CCc1ccc2occ(CC(=O)Nc3ccc(C)c(C)c3)c2c1,"inconclusive [inhibitor, single point]",
Cc1c(CN(C)Cc2cn(C)nc2-c2ccccc2F)[nH]c2ccccc12,"inconclusive [inhibitor, single point]",
C=CCc1cc(C=O)cc(OCC)c1OCc1ccc(Cl)cc1,"inconclusive [inhibitor, single point]",
CC1CCN(CCOc2cc(Cl)ccc2Cl)CC1,,inactive: -13.7%
Cc1ccc(Cl)cc1N1CCN(S(=O)(=O)c2cnc[nH]2)CC1,active: 20.6 µM,
O=C(c1ccco1)N1CCC[C@@]2(CCN(C(c3ccccc3)c3ccccc3)C2)C1,"inconclusive [inhibitor, single point]",
Cc1ccc(CNC(=O)CCCc2nnc3n(CC(C)C)c(=O)c4sccc4n23)cc1,"inconclusive [inhibitor, partial curve]",
CCCn1ncc2c(Nc3ccc(C)c(C)c3)ncnc21,"inconclusive [inhibitor, single point]",
CN(C)C(=O)c1ccc(-c2ccc3ncnc(N4CCC(C(=O)O)CC4)c3c2)cc1,,inactive: -9.46%
COc1ccc(NCC(=O)N/N=C/c2cc([N+](=O)[O-])ccc2N2CCCC2)cc1,active: 20.6 µM,
Cc1cc(OCCCCOc2ccc(S(N)(=O)=O)c(C)c2)ccc1S(N)(=O)=O,active: 18.4 µM,

Structure (SMILES),Potency,"activity change, negative = growth inhibition"
CCCCN(C(=O)c1ccccc1OCc1ccc(F)cc1)c1c(N)n(CC(C)C)c(=O)[nH]c1=O,,inconclusive: -34.8% [inhibitor]
Cc1ccc(NC(=O)CCC(=O)c2cccs2)c(O)c1,,inactive: -16.7%
COc1ccc(OC)c(C2NC(=O)NC(C)=C2C(=O)OC2CCCCC2)c1 (stereo unspecified),"inconclusive [inhibitor, single point]",
COc1ccccc1CNC(=O)c1ccccc1C(=O)NC(CC(C)C)C(=O)NCc1ccccc1OC (stereo unspecified),"inconclusive [inhibitor, single point]",
Cc1cc2nccnc2cc1C,,inactive: 0.081%
O=S(=O)(c1cccs1)N1CCN(CC(O)COc2cccc(Br)c2)CC1 (stereo unspecified),active: 20.6 µM,
CCn1c(C)nnc1SCC(=O)NC1CCCCCC1,,inactive: -3.78%
O=C(NCC1CC1)c1ccc(Nc2nc3ccc(Br)cc3[nH]2)cc1,"inconclusive [inhibitor, single point]",
O=c1c2nncn2ccn1-c1ccc(F)c(F)c1,,inactive: -20.5%
COCCNC(=O)C1(C)CCN(C(=O)C2(c3ccc(Cl)cc3)CCCC2)C1 (stereo unspecified),,inactive: -10.7%
c1cncc(-c2nc(N3CCCCCC3)c3ccccc3n2)c1,"inconclusive [inhibitor, single point]",
CCOc1cccc(CN2CCCC(C(=O)Nc3ccc(-c4ccn[nH]4)cc3)C2)c1O (stereo unspecified),"inconclusive [inhibitor, single point]",
CCN(CC)C(=O)C1CCCN(c2ncnc3c2c(-c2ccccc2)cn3-c2cccc(C)c2)C1 (stereo unspecified),active: 14.6 µM,
Cc1ccccc1C(=O)Nc1cccc(-c2cn3ccccc3n2)c1,"inconclusive [inhibitor, single point]",
Cc1cccc(NC(=O)N2CC=C(c3c[nH]c4ccccc34)CC2)c1C,active: 16.4 µM,
COC(=O)c1ccc2[nH]c([C@H](C)O)c([C@H](C)O)c2c1,"inconclusive [inhibitor, single point]",
O=C(N/N=C/c1ccc(-c2ccccc2Cl)o1)c1ccccc1,active: 14.6 µM,
CC(NC(=O)c1cccc(S(=O)(=O)N2CCCCCC2)c1)c1ccccc1 (stereo unspecified),"inconclusive [inhibitor, single point]",
CC(CC(=O)N(C)C1CCCCC1)S(=O)(=O)c1ccc2c(c1)NC(=O)CO2 (stereo unspecified),,inactive: -11.1%
O=C(COC(=O)/C=C/c1ccc(OC(F)F)cc1)Nc1cccc(S(=O)(=O)N2CCCC2)c1,"inconclusive [inhibitor, single point]",
CCCSc1ncnc2c1c(-c1ccccc1)cn2-c1ccccc1OC,"inconclusive [inhibitor, single point]",
COc1ccc(OC)c(NC(=O)CS(=O)(=O)Cc2nc(-c3ccc(C)cc3)oc2C)c1,"inconclusive [inhibitor, single point]",
CCOC(=O)C1(Cc2cccc(Cl)c2)CCCN(C(=O)c2ccco2)C1 (stereo unspecified),"inconclusive [inhibitor, single point]",
